Laboratory results taken from the supplement of paper PMC8728848.
The list shows a part of the results.

Assays:
Assay in all cases: glycan array binding signal (z-score within array); higher = stronger binding
Details in all cases: glycan notation: IUPAC condensed, linker removed
GlcNAc(b1-3)Man = target: GlcNAc(b1-3)Man
Method in brief: (§1)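 Glycan array data came from 3228 arrays in the Consortium for Functional Glycomics database, and only arrays with an available protein sequence were kept. Glycan names were put into IUPAC-condensed notation, and columns mapping to the same glycan were averaged. The binding signal is a within-array Z-score, averaged across arrays of one protein sequence run at different concentrations or buffers and across linkers. A negative Z-score can be read as non-binding.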

[1] = target: GlcNAc(b1-3)[GlcNAc(b1-4)][GlcNAc(b1-6)]GlcNAc
Method in brief: as §1

[2] = target: GlcNAc(b1-3)[GlcNAc(b1-6)]Gal(b1-4)GlcNAc
Method in brief: as §1

[3] = target: GlcNAc(b1-3)[GlcNAc(b1-6)]GalNAc
Method in brief: as §1

[4] = target: GlcNAc(b1-4)Gal(b1-4)GlcNAc
Method in brief: as §1

GlcNAc(b1-4)GlcNAc = target: GlcNAc(b1-4)GlcNAc
Method in brief: as §1

[5] = target: GlcNAc(b1-4)GlcNAc(b1-4)GlcNAc
Method in brief: as §1

[6] = target: GlcNAc(b1-4)GlcNAc(b1-4)GlcNAc(b1-4)GlcNAc(b1-4)GlcNAc
Method in brief: as §1

[7] = target: GlcNAc(b1-4)GlcNAc(b1-4)GlcNAc(b1-4)GlcNAc(b1-4)GlcNAc(b1-4)GlcNAc
Method in brief: as §1

[8] = target: GlcNAc(b1-4)[GlcNAc(b1-6)]GalNAc
Method in brief: as §1

[9] = target: GlcNAc(b1-6)Gal(b1-4)GlcNAc
Method in brief: as §1

GlcNAc(b1-6)GalNAc = target: GlcNAc(b1-6)GalNAc
Method in brief: as §1

[10] = target: GlcNAc6S(b1-3)Gal(b1-4)GlcNAc
Method in brief: as §1

Kdn(a2-3)Gal(b1-3)GalNAc = target: Kdn(a2-3)Gal(b1-3)GalNAc
Method in brief: as §1

Kdn(a2-3)Gal(b1-3)GlcNAc = target: Kdn(a2-3)Gal(b1-3)GlcNAc
Method in brief: as §1

Kdn(a2-3)Gal(b1-4)Glc = target: Kdn(a2-3)Gal(b1-4)Glc
Method in brief: as §1

Kdn(a2-3)Gal(b1-4)GlcNAc = target: Kdn(a2-3)Gal(b1-4)GlcNAc
Method in brief: as §1

[11] = target: Kdn(a2-3)Gal(b1-4)[Fuc(a1-3)]GlcNAc
Method in brief: as §1

Kdn(a2-6)Gal(b1-4)GlcNAc = target: Kdn(a2-6)Gal(b1-4)GlcNAc
Method in brief: as §1

[12] = target: Man(a1-2)Man(a1-2)Man(a1-3)Man
Method in brief: as §1

[13] = target: Man(a1-2)Man(a1-2)Man(a1-6)[Man(a1-3)]Man
Method in brief: as §1

Man(a1-2)Man(a1-3)Man = target: Man(a1-2)Man(a1-3)Man
Method in brief: as §1

[14] = target: Man(a1-2)Man(a1-3)[Man(a1-2)Man(a1-6)]Man
Method in brief: as §1

[15] = target: Man(a1-2)Man(a1-3)[Man(a1-2)Man(a1-6)]Man(a1-6)[Man(a1-2)Man(a1-2)Man(a1-3)]Man
Method in brief: as §1

[16] = target: Man(a1-2)Man(a1-3)[Man(a1-2)Man(a1-6)]Man(a1-6)[Man(a1-2)Man(a1-2)Man(a1-3)]Man(b1-4)GlcNAc(b1-4)GlcNAc
Method in brief: as §1

[17] = target: Man(a1-2)Man(a1-3)[Man(a1-6)]Man(a1-6)[Man(a1-2)Man(a1-3)]Man(b1-4)GlcNAc(b1-4)GlcNAc
Method in brief: as §1

[18] = target: Man(a1-2)Man(a1-6)[Man(a1-3)]Man(a1-6)[Man(a1-2)Man(a1-2)Man(a1-3)]Man
Method in brief: as §1

[19] = target: Man(a1-2)Man(a1-6)[Man(a1-3)]Man(a1-6)[Man(a1-2)Man(a1-2)Man(a1-3)]Man(b1-4)GlcNAc(b1-4)GlcNAc
Method in brief: as §1

Man(a1-3)[Man(a1-6)]Man = target: Man(a1-3)[Man(a1-6)]Man
Method in brief: as §1

[20] = target: Man(a1-3)[Man(a1-6)]Man(a1-6)[Man(a1-2)Man(a1-3)]Man(b1-4)GlcNAc(b1-4)GlcNAc
Method in brief: as §1

[21] = target: Man(a1-3)[Man(a1-6)]Man(a1-6)[Man(a1-3)]Man
Method in brief: as §1

[22] = target: Man(a1-3)[Man(a1-6)]Man(a1-6)[Man(a1-3)]Man(b1-4)GlcNAc(b1-4)GlcNAc
Method in brief: as §1

[23] = target: Man(a1-3)[Man(a1-6)]Man(b1-4)GlcNAc(b1-4)GlcNAc
Method in brief: as §1

[24] = target: Man(a1-3)[Man(a1-6)]Man(b1-4)GlcNAc(b1-4)[Fuc(a1-6)]GlcNAc
Method in brief: as §1

Man(a1-6)Man = target: Man(a1-6)Man
Method in brief: as §1

Man(b1-4)GlcNAc = target: Man(b1-4)GlcNAc
Method in brief: as §1

MurNAc(b1-4)GlcNAc = target: MurNAc(b1-4)GlcNAc
Method in brief: as §1

Neu5Ac(a2-3)Gal = target: Neu5Ac(a2-3)Gal
Method in brief: as §1

B1: FGFR2-Fc (protein)
chain: MVNVTDAISSGDDEDDTDGAEDFVSENSNNKRAPYWTNTEKMEKRLHAVPAANTVKFRCPAGGNPMPTMRWLKNGKEFKQEHRIGGYKVRNQHWSLIMESVVPSDKGNYTCVVENEYGSINHTYHLDVVERSPHRPILQAGLPANASTVVGGDVEFVCKVYSDAQPHIQWIKHVEKNGSKYGPDGLPYLKVLKHSGINSSNAEVLALFNVTEADAGEYICKVSNYIGQANQSAWLTVLPKQQAPGREKEITASPDYLETRPLEQKLISEEDLAANDILDYKDDDDKV
glycan array binding signal (z-score) (GlcNAc(b1-3)Man): -0.21 | glycan array binding signal (z-score) [1]: -1.12 | glycan array binding signal (z-score) [2]: 0.399 | glycan array binding signal (z-score) [3]: -0.018 | glycan array binding signal (z-score) [4]: -0.052 | glycan array binding signal (z-score) (GlcNAc(b1-4)GlcNAc): -0.264 | glycan array binding signal (z-score) [5]: -0.354 | glycan array binding signal (z-score) [6]: 0.035 | glycan array binding signal (z-score) [7]: -0.087 | glycan array binding signal (z-score) [8]: 0.601 | glycan array binding signal (z-score) [9]: -0.048 | glycan array binding signal (z-score) (GlcNAc(b1-6)GalNAc): -0.167 | glycan array binding signal (z-score) [10]: 0.175 | glycan array binding signal (z-score) (Kdn(a2-3)Gal(b1-3)GalNAc): -0.212 | glycan array binding signal (z-score) (Kdn(a2-3)Gal(b1-3)GlcNAc): -0.12 | glycan array binding signal (z-score) (Kdn(a2-3)Gal(b1-4)Glc): 0.018 | glycan array binding signal (z-score) (Kdn(a2-3)Gal(b1-4)GlcNAc): 0.596 | glycan array binding signal (z-score) [11]: 0.106 | glycan array binding signal (z-score) (Kdn(a2-6)Gal(b1-4)GlcNAc): -0.47 | glycan array binding signal (z-score) [12]: -0.008 | glycan array binding signal (z-score) [13]: -0.626 | glycan array binding signal (z-score) (Man(a1-2)Man(a1-3)Man): -0.428 | glycan array binding signal (z-score) [14]: -0.403 | glycan array binding signal (z-score) [15]: -0.185 | glycan array binding signal (z-score) [16]: 0.398 | glycan array binding signal (z-score) [17]: -0.644 | glycan array binding signal (z-score) [18]: -0.648 | glycan array binding signal (z-score) [19]: -0.513 | glycan array binding signal (z-score) (Man(a1-3)[Man(a1-6)]Man): 0.275 | glycan array binding signal (z-score) [20]: -0.061 | glycan array binding signal (z-score) [21]: 0.011 | glycan array binding signal (z-score) [22]: -0.189 | glycan array binding signal (z-score) [23]: -0.406 | glycan array binding signal (z-score) [24]: -0.128 | glycan array binding signal (z-score) (Man(a1-6)Man): -0.346 | glycan array binding signal (z-score) (Man(b1-4)GlcNAc): 0.038 | glycan array binding signal (z-score) (MurNAc(b1-4)GlcNAc): 0.08 | glycan array binding signal (z-score) (Neu5Ac(a2-3)Gal): -0.402
